Source: paper PMC4336329 (PLoS ONE, 2015)
Among all 310,000 compounds or so, about 14,000 (4.5%) showed an effect of 50% or more. Effects have a minus sign here. This is one part of the list.

The compounds below were run against human ether-à-go-go-related gene (hERG) potassium channel (human, UniProt Q12809) (assay: primary screen, population patch clamp on CHO cells stably expressing hERG).
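Also: peak tail current of the secondary pulse compared with the same well before compound.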

Sequence of human ether-à-go-go-related gene (hERG) potassium channel (Q12809 whole entry, looked up): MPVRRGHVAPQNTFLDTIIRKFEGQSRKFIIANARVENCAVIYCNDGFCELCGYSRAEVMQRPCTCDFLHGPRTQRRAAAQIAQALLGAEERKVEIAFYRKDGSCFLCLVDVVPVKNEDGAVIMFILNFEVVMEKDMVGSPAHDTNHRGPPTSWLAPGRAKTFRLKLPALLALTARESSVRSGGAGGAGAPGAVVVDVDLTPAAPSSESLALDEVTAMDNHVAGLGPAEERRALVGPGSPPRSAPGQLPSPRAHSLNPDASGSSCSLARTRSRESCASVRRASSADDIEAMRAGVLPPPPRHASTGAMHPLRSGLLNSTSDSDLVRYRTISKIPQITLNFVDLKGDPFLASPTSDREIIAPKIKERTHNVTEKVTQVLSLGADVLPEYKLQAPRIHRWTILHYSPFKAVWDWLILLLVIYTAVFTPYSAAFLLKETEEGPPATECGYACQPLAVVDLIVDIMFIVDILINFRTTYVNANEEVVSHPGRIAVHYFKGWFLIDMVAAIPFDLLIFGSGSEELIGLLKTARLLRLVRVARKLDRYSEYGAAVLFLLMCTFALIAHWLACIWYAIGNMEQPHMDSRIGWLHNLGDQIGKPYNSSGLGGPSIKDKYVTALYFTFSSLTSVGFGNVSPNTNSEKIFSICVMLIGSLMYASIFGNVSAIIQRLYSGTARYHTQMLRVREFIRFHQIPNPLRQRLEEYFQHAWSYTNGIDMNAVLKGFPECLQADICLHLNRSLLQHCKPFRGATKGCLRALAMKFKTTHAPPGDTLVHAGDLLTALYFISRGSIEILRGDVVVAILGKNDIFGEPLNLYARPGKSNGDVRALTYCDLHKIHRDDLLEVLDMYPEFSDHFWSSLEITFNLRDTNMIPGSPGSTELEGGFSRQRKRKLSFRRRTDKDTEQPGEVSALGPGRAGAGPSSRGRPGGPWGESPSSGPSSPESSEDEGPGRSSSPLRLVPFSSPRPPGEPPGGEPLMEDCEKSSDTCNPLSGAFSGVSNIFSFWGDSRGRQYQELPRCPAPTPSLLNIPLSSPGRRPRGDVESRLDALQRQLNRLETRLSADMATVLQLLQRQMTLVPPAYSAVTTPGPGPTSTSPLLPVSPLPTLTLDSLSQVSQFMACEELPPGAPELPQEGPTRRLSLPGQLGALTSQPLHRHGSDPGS

Structure (SMILES)	hERG current change (%, negative = inhibition) at 10uM [%]
CC(=O)c1ccc(N2CCN(C(=O)c3nn(Cc4ccccc4)c(=O)c4ccccc34)CC2)cc1	-75.1
CN1C(=O)c2ccc(C(=O)NCc3ccccn3)cc2C1=O	8.06
Cc1ccc(C(=O)NC(C)c2ccc(-n3ccnc3)cc2)o1 (stereo not shown)	-37.4
CC1(C)Cc2c(C#N)c(N)sc(=S)c2CO1	-0.142
Cn1c(SCC(=O)Nc2nccs2)nnc1-c1cccnc1	2.16
O=C(COC(=O)c1ccc(Cl)nc1)Nc1ccc2c(c1)OCCO2	11.7
CCN(CC)CCCNC(=O)c1cc(Cl)c(NC(=O)C2=C(C)OCCS2)cc1OC	-61.5
O=C(N/C=C/c1ccco1)OCc1ccccc1	15.6
O=C(NCCCN1CCCC1=O)c1cncc(Br)c1	6.26
COc1ccc([N+](=O)[O-])cc1NCc1ccco1	-9.03
O=S(=O)(N/N=C/c1cccnc1)c1ccc(Cl)c(Cl)c1	6.1
Cc1ccnc(NC(=O)C2CCN(S(=O)(=O)c3cccc4nonc34)CC2)c1	-19
CCOC(=O)C1=C(CC)Nc2ccccc2N=C1NC(=O)Cn1cnc2ccccc2c1=O	5.84
O=C(c1cccc(S(=O)(=O)Nc2ccccc2Cl)c1)N1CCCCCC1	-23.3
COc1cc(C(=O)NCC(=O)N2CCN(S(=O)(=O)c3ccccc3)CC2)cc(OC)c1OC	15.9
O=C(O)c1ccc(N2C(=O)C3ON(c4ccccc4)C(c4ccccc4F)C3C2=O)cc1 (stereo not shown)	17.7
O=C(CCC(=O)Nc1ccc(F)cc1)N/N=C/c1cc([N+](=O)[O-])ccc1O	7.83
CC(C)CC(=O)NC(=S)N1CCN(c2ccc([N+](=O)[O-])cc2Cl)CC1	-30.9
Cc1ccc(C)c(CSc2nc3[nH]ncc3c(=O)[nH]2)c1	0.0505
CCOc1cc(OCC)cc(C(=O)NCc2ccco2)c1	-3
C=C(C)CN(CC)c1nc(N)c(C#N)c(CC#N)c1C#N	-17.8
COC(=O)c1ccccc1NC(=O)c1cccc(COc2ccccc2Cl)c1	10.6

Structure (SMILES)	hERG current change (%, negative = inhibition) at 10uM [%]
Oc1c(Cl)cc(Cl)cc1Sc1cc(Cl)cc(Cl)c1O	20.8
CCCCN(CCCC)CC(O)COc1ccccc1Br.Cl (stereo not shown)	-40.6
NC(=O)CSc1nnc(-c2ccncc2)n1CCc1ccccc1	11.2
O=C(CSc1nc2ccsc2c(=O)n1CC1CCC(C(=O)O)CC1)NCCc1ccc(Cl)cc1 (stereo not shown)	-3.86
COc1ccc(CNC(=O)[C@H](C)N2C(=O)N3CCc4c([nH]c5ccc(OC)cc45)[C@@]3(C)C2=O)cc1	9.36
CCCCNc1ncnc2sc3c(c12)CCN(CCC)C3	-76
CCc1ccc(N(C2C=CS(=O)(=O)C2)S(=O)(=O)c2ccccc2)cc1 (stereo not shown)	3.99
CSCCC(NC(=O)c1ccco1)C(=O)OCC(=O)N1c2ccccc2NC(=O)C1(C)C (stereo not shown)	-7.21
CCOc1cc(NS(=O)(=O)c2ccc(OC)cc2)c(OCC)cc1NC(=O)c1ccco1	-13.9
Cc1cc(CNC(=O)CC2C(=O)NCCN2CC(C)(C)C)nn1C (stereo not shown)	14.2
Cc1cccc(NC(=O)c2cccc(C(=O)Nc3cccc(C)c3)c2)c1	22.9
CCN(CC(=O)NCC1CCCO1)S(=O)(=O)c1ccc2ccccc2c1 (stereo not shown)	11.9
COc1ccc(CNC(=O)CNS(=O)(=O)c2cccs2)cc1	13.2
CCOC(=O)C1(c2ccccc2)CCN(CCC(=O)Nc2ccc(F)cc2)CC1	-36.1
CNC(=O)c1ccc(-c2ccccc2)s1	5.46
O=C(NCc1ccccc1Cl)C1CCN(S(=O)(=O)c2ccc(N3CCCC3=O)cc2)CC1	15.7
CCOC(=O)CN(C(=O)Cn1nnc(-c2ccc(OC)cc2)n1)C(C(=O)NC1CCCC1)c1ccc(F)cc1 (stereo not shown)	-0.514
CCOC(=O)c1c2n(c3c(NCc4ccccc4)ncnc13)CCCC2	-76.3
COc1ccc(CN2CCN(C(=O)c3cccc(OC)c3OC)CC2)cc1OC.O=C(O)C(=O)O	5.63
CCOC(=O)C1CCCN(CC(=O)Nc2c(C(=O)OC)[nH]c3ccc(C)cc23)C1 (stereo not shown)	-36.1
O=C1CN(C(=O)CSc2nncn2-c2ccccc2)c2ccccc2N1	25.4
O=[N+]([O-])O[C@H]1CO[C@H]2[C@@H]1OC[C@H]2O[N+](=O)[O-]	-0.978

Structure (SMILES)	hERG current change (%, negative = inhibition) at 10uM [%]
Cc1ccc2cc(CNC(C)(C)C)c(=O)[nH]c2c1	-19
O=C(Nc1cccnc1)c1cccc(S(=O)(=O)N2CCc3ccccc32)c1	11
O=C(N/N=C/c1cccc([N+](=O)[O-])c1)c1ccc2nc[nH]c2c1	13.5
CCN1C(=O)c2ccccc2Sc2ccc(C(=O)O)cc21	10.3
COc1ccc(C(=O)COC(=O)C2CCCN2C(=O)C23CC4CC(CC(C4)C2)C3)cc1 (stereo not shown)	2.11
O=C(CNc1ccccc1)Nc1ccc(F)cc1	3.4
COc1ccc(-n2nc(C(=O)NCC(=O)N3CCC(C(N)=O)CC3)c3ccccc3c2=O)cc1	9.36
CC(=O)Nc1ccc(NC(=O)CNC(=O)COc2ccccc2)cc1	15.8
COC(=O)C1=C(C)NC(=O)NC1/C=C/c1ccccc1 (stereo not shown)	-13.5
CC(=O)N1CCc2cc(S(=O)(=O)CCC(=O)NCc3ccc4c(c3)OCO4)ccc21	-3.72
COc1cc(SC)ccc1C(=O)Nc1ccncc1	-26.2
C#CCNC(=O)C1=C[C@H](C(C)(C)C)C[C@H](OCCCCO)O1	-0.801
Cc1ccc(CNC(=O)Nc2cccc(C)c2)cc1	16.3
COc1cc(C=O)ccc1OCC(=O)Nc1ccc2c(c1)OCO2	-5.05
O=C(O)Cc1ccc(O)cc1	17.1
Cc1cc(C)c(C#N)c(SCc2ccc(C(=O)O)cc2)n1	-5.29
COc1ccccc1CNC(=O)c1cc(-c2ccccc2C)nn1CC1CC(c2cccnc2)=NO1 (stereo not shown)	-2.89
O=C(CSc1nc2[nH]c(=O)cc(O)c2s1)Nc1cc(Cl)cc(Cl)c1	-4.57
Cc1ccc(C)c(N2CCN(C(=O)c3ccc4nc(-c5ccco5)c(-c5ccco5)nc4c3)CC2)c1	21.1
S=C(NCc1ccc2c(c1)OCO2)Nc1ccc(-c2nc3ccccc3[nH]2)cc1	-0.463
Oc1[nH]c2ccccc2c1N=Nc1ccc(C(F)(F)F)cn1	2.64
O=C(Cc1ccccc1F)Nc1nc(-c2ccc(F)c(F)c2)cs1	0.418

Structure (SMILES)	hERG current change (%, negative = inhibition) at 10uM [%]
CCOC(=O)CSc1nc2ccccc2c(=O)n1Cc1ccco1	-18.1
CN1CCN(c2ncnc3c2cnn3-c2ccc(Cl)cc2)CC1	-37.7
CCC1CCC(C(=O)NC(C(=O)NCCc2ccc(S(N)(=O)=O)cc2)C(C)C)CC1 (stereo not shown)	16.6
Cc1ccc(N(C(=O)CCC(=O)Nc2ccccn2)C(C(=O)NC(C)C)c2ccc(F)cc2)cc1 (stereo not shown)	21.4
COc1ccc(C(=O)NCC(C)C)c(OC)c1	-4.71
COc1ccc(-c2cc(C#N)nc(NN)n2)cc1	2.26
O=C(Nc1nc2ccccc2n1Cc1ccccc1)c1ccco1	20.2
CNc1c(NS(=O)(=O)c2ccc(OC)c(Cl)c2)c(=O)oc2ccccc12	11.5
COc1ccc2c(c1)CCN=C2Cc1ccc(OC)c(OC)c1.Cl	-26.4
CCCCc1nc(SCC(=O)Nc2cccc(Cl)c2)n[nH]1	-4.4
CCOC(=O)CCCOC(=O)c1ccc(S(=O)(=O)N(C)C)cc1	-2.65
CC(=O)Nc1nc(-c2ccc3ccccc3c2)cs1	5.97
O=c1[nH]c2ccccc2c2ccccc12	20.4
Cc1ccc(NC(=O)COn2nnc3ccc(S(=O)(=O)N(C)C)cc32)cc1F	-17
COc1ccc(CNC(=O)CSc2nc3nc(C)cc(C)n3n2)cc1	2.92
O=C(OCC(CO)OC(CO)n1ccc(=O)[nH]c1=O)c1ccccc1 (stereo not shown)	11.4
O=C(CN1CCN(c2ncc(C(F)(F)F)cc2Cl)CC1)Nc1ccc2c(c1)OCO2	-37.7
Cc1ccccc1-n1nnnc1SCC(=O)c1c(N)n(C)c(=O)n(C)c1=O	0.614
CC(C)CC(OC(=O)c1nsc(Cl)c1Cl)C(=O)NC1CCCC1 (stereo not shown)	13.9
Cc1ccc(NC(=O)CCC(=O)NNC(=O)Cc2ccccc2)cc1C	2.51
Cc1ccc(C)c(S(=O)(=O)Nc2ccccc2C(=O)Nc2ccccc2N2CCOCC2)c1	6.67
COc1cc(/C=N\NC(=O)Cn2nnc3ccccc32)cc(OC)c1OC	-18.4
